Test results published in patent US20240417437A1, “Linker Polypeptides” (Trutino Biosciences Inc., priority 2021, published 2024).

Experiments:
[1] = system: MC38 colorectal cancer cells; experiment: MC38 colorectal cancer tumor growth inhibition study; format: in vivo, C57BL/6 mice; conditions: low dose (1 mg/kg IP BIW)
Method: C57BL/6 mice were subcutaneously inoculated with MC38 colorectal cancer cells. When the average tumor volume reached 70-90 mm^3, animals were randomized into 10 groups based on tumor volumes (n 7 or 6 mice per treatment group).
Tumor volumes were measured twice a week for the duration of the study.

[2] = format: binding; conditions: vs. Construct AAA and Construct NNN, respectively
Method: 96-well plates were coated with 10 μg/mL of Heparin-BSA conjugate (provided by Dr. Mueller, Boerhinger Ingelheim) or control BSA for 18-22 hours at room temperature on shaker (350 rpm). After washing, wells are blocked with 2% milk powder in PBS-0.05% Tween 20 or PBS-0.05% Tween 20/1% BSA for 90 minutes. The fusion proteins were then titrated in either 2% milk powder in PBS-0.05% Tween 20 or 1% BSA/PBS-0.05% Tween 20, pH 7.5 and/or pH 6, and added for 2 hours at room temperature with shaking. After washing, an anti-mouse IL-2 biotin-labelled detection antibody (JES6-5H4, ThermoFisher), anti-6×-His Tag HRP conjugate antibody (Invitrogen, 1 mg/mL, cat #MA1-21315-HRP), or anti-human IgG HRP conjugate antibody (SouthernBiotech) was added, and binding was detected using Ultra Streptavidin HRP (ThermoFisher). The plate was developed by adding the chromogenic tetramethylbenzidine substrate (Ultra TMB, ThermoFisher). The reaction was stopped by addition of 0.5 M H2SO4, and the absorbance was read at 450-650 nm. […] Moreover, when the same pH-dependent heparin binding motif was inserted into different locations of IL-2 fusion proteins, all resulting proteins bound heparin at pH 6 with similar high affinities (FIGS. 4F and 4G). Likewise, similar binding affinities were observed when another heparin targeting sequence was engineered into different sites of IL-2 fusion proteins (FIGS. 4H-4I). […]

B1: Construct EEE (protein)
chain: [about 150 residues not written out]VRIQRKKEKMKETGPLGVRGGGGGSGGGGSELCDDDPPEIPHATFKAMAYKEGTILNCECKRGFRRIKSGSLYMLCTGNSSHSSWDNQCQCTSSATRNTTKQVTPQPEEQKERKTTEMQSPMQPVDQASLPGHCREPPPWENEATERIYHFVVGQMVYYQCVQGYRALHRGPAESVCKMTHGKTRWTQPQLICTGEMETSQFPGEEKPQASPEGRPESETSCLVTTTDFQIQTEMAATMETSIFTTEYQGSGGGG[human IgG1 Fc with changes not written out]
modifications: Synthetic: Construct EEE
With B1 the “efficacy (TGI) in low dose treatment groups” value [1] was “superior efficacy over parental non-targeting constructs” and the “enhanced binding to heparin in vitro compared to constructs lacking a heparin binding site” value [2] was “about 30 fold”.

B2: Construct NNNN: linker polypeptide-IL-2 fusion protein engineered with a heparin binding site; compared with Construct NNN (protein)
chain: [about 150 residues not written out]VRIQRKKEKMKETGPLGVRGGGGGSGGGGSELCDDDPPEIPHATFKAMAYKEGTILNCECKRGFRRIKSGSLYMLCTGNSSHSSWDNQCQCTSSATRNTTKQVTPQPEEQKERKTTEMQSPMQPVDQASLPGHCREPPPWENEATERIYHFVVGQMVYYQCVQGYRALHRGPAESVCKMTHGKTRWTQPQLICTGEMETSQFPGEEKPQASPEGRPESETSCLVTTTDFQIQTEMAATMETSIFTTEYQGSGGGGDKTHTCPPCPAPEAAGGPSVFLFPPKPKDTLMISRTPEVTCVVVDVSHEDPEVKFNWYVDGVEVHNAKTKPREEQYNSTYRVVSVLTVLHQDWLNGKEYKCKVSNKALGAPIEKTISKAKGQPREPQVYTLPPSRDELTKNQVSLTCLVKGFYPSDIAVEWESNGQPENNYKTTPPVLDSDGSFFLYSKLTVDKSRWQQGNVFSCSVMHEALHNHYTQKSLSLSPGGGSGKLWVLPK
modifications: Synthetic: Construct NNNN; HuIL2(C125S)-vRIQRKKEKMKET-MMPcs1_(G4S)x2-hu IL2Ra([…]; M25I)-GSGGGG- hu IgG1Fc- GGSGKLWvLPK
notes: compared with Construct NNN
In the case of B2, the “enhanced binding to heparin in vitro compared to constructs lacking a heparin binding site” value [2] is reported as “about 30 fold”.
